# Source: the supplement of paper PMC12632987
# Whole data set: some 1,800 sequences, median “median log2 fold change of GCK-ALFA target abundance (FLAG IP / Myc IP barcode read proportion)” near 0.14, cut for the lowest 2% near -0.84. The list shows a part of the results.
# T1: TRAF2, Q12933
# T1 chain: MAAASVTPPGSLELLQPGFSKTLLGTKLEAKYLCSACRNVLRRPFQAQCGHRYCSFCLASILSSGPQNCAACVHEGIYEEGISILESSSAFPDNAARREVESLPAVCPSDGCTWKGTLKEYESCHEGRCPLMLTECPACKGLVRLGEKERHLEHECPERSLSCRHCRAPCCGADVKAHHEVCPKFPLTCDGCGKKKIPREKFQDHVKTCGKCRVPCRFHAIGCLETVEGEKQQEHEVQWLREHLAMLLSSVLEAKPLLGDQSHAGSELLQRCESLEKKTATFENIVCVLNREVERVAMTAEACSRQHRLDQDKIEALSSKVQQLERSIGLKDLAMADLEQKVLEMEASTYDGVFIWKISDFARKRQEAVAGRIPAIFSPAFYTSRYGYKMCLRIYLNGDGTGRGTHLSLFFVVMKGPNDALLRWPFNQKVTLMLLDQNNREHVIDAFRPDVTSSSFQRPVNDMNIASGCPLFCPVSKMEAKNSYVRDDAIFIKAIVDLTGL
# B1: traf2_out_5_189_2315 (protein)
# chain: SAREEEQKALNEKAKEIGKEVTKLINEMKKEGKSWEEIAEKMLEKMKTLPVDDAALYSGIFYSIMLGEAIANNDEKLKEIAEKFREKAKELIKEKEKKEA
# B2: traf2_out_17_162_1601 (protein)
# chain: SELEKKKEEIEKELEELKKERKELEEKLKNIENLTKEEISDLLVEASEKRRKALELIEELEELKEELDEEFYEEKKEEAEEIAEEFQKIANKLYEALLKK
# B3: traf2_out_11_169_805 (protein)
# chain: EEEEKNRKINDFALELNDKAVEKLKEEALKLAKEAGLDVAEVEKIFEENKGKSLSAVAAALIAYFKSKGAEEAAAKVLELYEKLKEEINKKSTEKIKELE
# B4: traf2_out_1_158_914 (protein)
# chain: DTKRNLILAVVRLVGKDAIDSAKEAGDEKLAKALKEVVEKIEKAVRELLIEKNKSVEEVIEEIKKIAEEAQKKVDPKTAKAIKTLARQIISGIRQVDKLM
# B5: traf2_out_20_3_2063 (protein)
# chain: AELEAQLEAELQAALELLEEAAKLADEETAARLKELRERLEASRELSPEDRLVELSEIKRELLRLAEEARKEGKEELAKLLEEAADELNRAMQLTYQIIQ
# B6: traf2_out_17_162_1499 (protein)
# chain: AATEAKLKALKKELEKLKKKLKELKKKLPNLPKMSKEELTDLLVEVSELKREARRLAEELKKLAKETKSKEAKKLLKEAEKLAEEAQKIANEVYKVLEAK
# B7: traf2_out_17_162_1591 (protein)
# chain: SELEEEIEEIERELEELEEELKRLKEKLKNIEKLSKEELTDLLVEASEARRRARELLERIRSLREELPEELYEELAERAERLAEEFQRIANAFYKELEKK
# B8: traf2_out_8_15_2550 (protein)
# chain: SIEEAAEKDIERLREHSDGDEESLIRTLLGMAKAELRYAKILKEEGRKEEALRTLEAARIYAERALELARAAGSPDLAAIEAEVEALKKEIEELEKEIKE
# B9: traf2_out_6_156_2456 (protein)
# chain: ALEEIKKETKEKIEEEIKKLSKASEEKKISYINDIAGAVYRGLQRAREAGASLEEIKAFGEELLKVAEEEAEKAGLDEDTKNLLLSSLNAVFEVAIEEAK
# B10: traf2_out_18_167_1873 (protein)
# chain: SEELDKEYEELTDKLVEYSEIRRALREILEALERSREEARALLEAEVAKRPDSEVLKEALEVFETKSDEEFRAFLEKKAEELQKKANEAYKKLEELEKLK
# B11: traf2_out_11_131_661 (protein)
# chain: MDAVAMAKSVAARVDERLALAKTLSPEERTRLARQALDSIEALAEYLTSHVSEMSKEDVEEAVKILRASAKKVLAADPSVAEDVKEVEKALKKLLEAAKA
# B12: traf2_out_19_16_1990 (protein)
# chain: SAEEAKKLEEKMKEYLEKALELAKEAVENLDKLSREELMDKLVEISELIRKAKEALQKYLELAKDNPEHRKEVTAEFDKKLDEIQKLMTIIVDKILEKRK
# B13: traf2_out_9_166_2603 (protein)
# chain: RTDKQYEVIKKYTSEVAKQRQKALELLKKIGAPQELIEEVNEIMNDLLTTLFSNEEAIEKLKKKIEELKKKPEYQEVAEELEKALDAVKEGRKELAEINA
# B14: traf2_out_17_162_1609 (protein)
# chain: SELEKKKEKLKKKLEELKKKLKELTEKAKNIEKLSKEELSDLLVEASEAKREALEALEEIEKLKEKLDPEEYEKLKKEFEELAEEFQRLANIFYKELEKK
# B15: traf2_out_13_95_1161 (protein)
# chain: NPETAKKIMEVADEMLDKSLALLEELLKIAKKKGIAEEEIKEVIHAAKYHSINEAIHLLKELAKKYPELKEELEATIKELEALRREAGRRVAEILKEAEE
# B16: traf2_out_17_178_1722 (protein)
# chain: TKEEYRARISELTDRLIDLAEEAAARLLALARAEGTLSPAELAALEAARRRGSANDTLALMRRAAPRLRTRAEAEALLAEFERRSRELAREIAAAYAKYE
# B17: traf2_out_17_35_1758 (protein)
# chain: KEEERKTFLEQAKRHEELAKLVKEAIEELKKNKDDKEKQKEILEKLLEELKKAGANEQSIHLVQEAIESGDLEEALKLLEEVRERHEVAAEGLRLAAERV
# B18: traf2_out_9_108_2590 (protein)
# chain: MTEEEKLEEIFEKVKELVEEALEEFDFPEDLREALEASMKQAEELYKQGEKRTAIVLLAIDLASVASELGEEVVEWVLKRLEEIDERAASAARRRVELLK
# B19: traf2_out_16_104_1376 (protein)
# chain: SAATDAAFQAIIARLEAIAERAQRLANELMKLYEKASPEEKEKISDALVEVSELRRRALAAAEAVRQAQAAGGDLAEAQATLAELEARLAEAEARVEELK
# B20: traf2_out_17_162_1621 (protein)
# chain: MSIEEKLAEFEKKLAELEKKLKELEEKLKNIKELSKEELTDLLVEASEARREAREAIVELEELAGEIPEERYAELKARFEELAEKFQRIANKFYKELEKK
# B21: traf2_out_11_79_933 (protein)
# chain: EEKRKELLEKLEEAKKKLEELIKKMEEGTISEEEREKLLEEIERLLQRAAMLALELGLSDVLVEISEAKRHVRLAYSGDLESLKKALEEVEKAIELLKKE
# B22: traf2_out_14_149_1246 (protein)
# chain: SAEAELLRKAAELDEEIAKALEEILKLLEAGKLEEALKALEKAIEEARKRGEELGVSTSMLFDMEHILELLKKDPEEALKATREAAKRARDAAEVLRSIA
# B23: traf2_out_16_177_1464 (protein)
# chain: KRSEVMDRILILSHLAKAAEYLLEGKPELAAEHLERAREEAEEAGDEEGLALIERIEALAAEDTPEARAELAELRRELTRRAGELVEEAEKLIKEEAEKE
# B24: traf2_out_13_95_1214 (protein)
# chain: SAEANAELREVAREYTDRAEAVIDALAAALAPDPEVQPDMDAIRAAFRRNGVRQAIALIRAAAARHPEHKADFDAAAAELEAIRREAGRRFAEILKRDEE
# B25: traf2_out_20_3_2185 (protein)
# chain: SELEEELEKKLEEALKLIEEAAKLADPETAKRLEELRKRLEKSRELSYEDRLVELSEIRRELLRLAEEAKAAGKDELAAVLEEAADALNKAMNLVYKIIE
# B26: traf2_out_20_3_2101 (protein)
# chain: SELEEEYERELERALALLAEAAALADPETAARLEALRARVEASRSLPPTDRLVELSAVRREVLLLAQEARAAGDAELAAVLEAAADALNRAMNLVMKIIE
# B27: traf2_out_5_86_2370 (protein)
# chain: EEERRDAAADRKTQVLIDSINKVLSLLNSKGLNADSTYEILKLFNKMLDPEKREESKEKIREILKKSGLSEEEIEEILEELEKIVDDTNAKLAAIDAELA
# B28: traf2_out_12_50_977 (protein)
# chain: SMEEEEKEENERFREEADRILDRRDELWAETGGDVEAFAAKLLEIAKESLEDAKLARSVARAKLSELLQKGEDTSVIAAAIDEIDEIEEELEEKKEKEEE
# B29: traf2_out_13_95_1118 (protein)
# chain: SREVAEKIMEIADEMEEKILEVLEKLLEIAKKKGIAEEEIQKILDLAKHGTSNEVIHELKELSKKYPELKEEFDAAIKEIEAIRREAGRKVAEILKEEEE
# Target: T1, TRAF2, Q12933
# Experiment: median log2 fold change of GCK-ALFA target abundance (FLAG IP / Myc IP barcode read proportion) (log2 ratio); each designed protein is fused to an ALFA-tag nanobody in HEK293 cells to bring the named protein to FLAG-tagged glucokinase (GCK); Myc marks an untargeted standard; higher = target protein stabilised (more abundant)
# Conditions: target protein: 3xFLAG-MCP-GCK-ALFA reporter; HEK293 landing pad (RPLP)
# How it was run: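 HEK293 landing-pad cells received a recombined binder library fused to the ALFA nanobody and were induced with 2 μg mL^−1 doxycycline, then transfected with a plasmid encoding a FLAG-tagged target and a Myc-tagged standard. Lysates were collected after 48 h for anti-FLAG and anti-Myc immunoprecipitation, and the circular RNA barcodes were reverse transcribed, amplified and sequenced. Target abundance for each binder is the median log2 ratio of FLAG to Myc barcode read proportions. Barcodes had to reach a proportion of at least 10^−7 in both replicates, each binder needed at least 3 barcodes per replicate, a pseudocount of 10^−6 was applied, and the two replicates were pooled.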
row,Binder,median log2 fold change
1,B1,0.387
2,B2,0.308
3,B3,0.261
4,B4,-0.512
5,B5,0.353
6,B6,0.388
7,B7,0.0293
8,B8,0.0856
9,B9,0.184
10,B10,0.0619
11,B11,0.0951
12,B12,-0.19
13,B13,0.161
14,B14,0.154
15,B15,-0.211
16,B16,-0.153
17,B17,0.0114
18,B18,0.0837
19,B19,0.417
20,B20,0.244
21,B21,-0.0578
22,B22,0.112
23,B23,0.0924
24,B24,-0.892
25,B25,0.269
26,B26,-0.246
27,B27,-0.0117
28,B28,0.152
29,B29,0.201
